According to article PMC4336329 (PLoS ONE, 2015):
Out of some 310,000 compounds screened, about 14,000 (4.5%) showed an effect of 50% or more. The effect is printed as a negative number. Some of the results follow.

Target: human ether-à-go-go-related gene (hERG) potassium channel (human, UniProt Q12809)
Assay: primary screen, population patch clamp on CHO cells stably expressing hERG
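Further: peak tail current of the secondary pulse compared with the same well before compound.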

Chain of human ether-à-go-go-related gene (hERG) potassium channel (Q12809 whole entry, looked up): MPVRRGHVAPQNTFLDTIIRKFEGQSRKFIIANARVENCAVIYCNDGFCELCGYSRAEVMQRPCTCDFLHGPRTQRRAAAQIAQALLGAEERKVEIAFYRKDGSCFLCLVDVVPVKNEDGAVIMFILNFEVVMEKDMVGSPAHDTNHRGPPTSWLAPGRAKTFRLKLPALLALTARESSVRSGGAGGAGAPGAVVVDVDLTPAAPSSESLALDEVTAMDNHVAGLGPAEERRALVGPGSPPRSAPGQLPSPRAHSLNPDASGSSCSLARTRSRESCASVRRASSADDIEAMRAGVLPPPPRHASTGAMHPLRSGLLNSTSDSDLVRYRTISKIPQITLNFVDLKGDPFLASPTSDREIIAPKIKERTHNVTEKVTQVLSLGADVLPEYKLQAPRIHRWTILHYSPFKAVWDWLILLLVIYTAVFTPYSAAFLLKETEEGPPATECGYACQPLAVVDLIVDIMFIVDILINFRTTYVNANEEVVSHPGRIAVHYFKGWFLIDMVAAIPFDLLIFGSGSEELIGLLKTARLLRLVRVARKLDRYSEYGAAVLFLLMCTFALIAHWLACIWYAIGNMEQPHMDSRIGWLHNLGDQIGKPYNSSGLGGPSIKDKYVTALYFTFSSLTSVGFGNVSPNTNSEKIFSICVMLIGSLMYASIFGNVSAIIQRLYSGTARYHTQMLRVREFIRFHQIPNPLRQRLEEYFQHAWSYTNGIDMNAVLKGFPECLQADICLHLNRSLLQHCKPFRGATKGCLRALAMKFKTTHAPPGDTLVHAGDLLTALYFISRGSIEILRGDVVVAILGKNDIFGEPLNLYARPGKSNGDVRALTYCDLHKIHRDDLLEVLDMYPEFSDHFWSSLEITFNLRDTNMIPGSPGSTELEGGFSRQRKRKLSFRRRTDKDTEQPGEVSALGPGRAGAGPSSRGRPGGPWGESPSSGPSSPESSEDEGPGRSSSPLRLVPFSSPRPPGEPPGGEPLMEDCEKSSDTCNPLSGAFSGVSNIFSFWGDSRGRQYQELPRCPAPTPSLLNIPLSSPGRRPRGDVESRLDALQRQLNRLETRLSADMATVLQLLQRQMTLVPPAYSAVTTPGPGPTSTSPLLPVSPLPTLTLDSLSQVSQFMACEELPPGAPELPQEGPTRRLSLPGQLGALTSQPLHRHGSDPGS

Compound	hERG current change (%, negative = inhibition) at 10uM
CC(C)c1ccc(NC(=O)C2CC2c2ccccc2)cc1 (centres unmarked)	2.78%
Cc1cc(C(=O)NC2CCCc3c2cnn3-c2ccc(C)c(C)c2)no1 (centres unmarked)	-42.9%
O=C(CSc1ccc2nnc(-c3ccccn3)n2n1)Nc1cccc(F)c1	-40.6%
Cc1cc(C)n2nc(C(=O)N3CCCC(Nc4ccc(C(C)C)cc4)C3)cc2n1 (centres unmarked)	-3.37%
COc1cccc(OC)c1CNC(=O)C1CCC(=O)N(CC2CCCCC2)C1 (centres unmarked)	-2.94%
NC(=O)c1ccc(NC(=O)CCCNC(=O)c2ccc(Cl)cc2)cc1	11.9%
Cl.Clc1cccc2c3c([nH]c12)CCNC3	9.81%
COc1cccc(NC(=O)C2CCN(S(=O)(=O)c3ccccc3)CC2)c1	5.45%
Cc1cc(C)cc(NC(=O)OCCN2CCN(Cc3ccccc3)CCC2=O)c1	-23.9%
CCOc1ccc(CCNC(=O)c2cccc(S(=O)(=O)N3CCN(C(C)=O)CC3)c2)cc1OCC	-8.25%
CCN1CCCC1CNC(=O)CCc1nc(-c2ccc(C)cc2)no1 (centres unmarked)	-22.4%
CCCc1ncc(C(=O)c2ccc(OC)cc2)n1C	5.24%
Cc1cc(Cl)c2oc(C(=O)N(C)CCCCN3CCOCC3)c(C)c2c1	-46%
CNC(=O)c1sccc1SCc1ccc(Cl)cc1Cl	-15.1%
CCCCn1c(N)c(N(CC(C)C)C(=O)c2ccc([N+](=O)[O-])o2)c(=O)[nH]c1=O	14.7%
O=c1oc2c(CN3CCCCC3)c(O)ccc2c2c1CCCC2	-1.56%
CCCC(=O)Nc1ccc(Cl)c(NC(=O)c2cccc(OC)c2)c1	-27.8%
Cc1c(C(=O)OC/C(O)=C(\C#N)c2nc3ccccc3[nH]2)oc2ccccc12	0.156%
O=C(c1ccco1)N1CCN(C(c2ccccc2Cl)c2nnnn2Cc2cccs2)CC1 (centres unmarked)	-56.2%
CCOC(=O)c1cccc(NC(=O)Cn2cnc3c2c(=O)n(C)c(=O)n3C)c1	-47.3%
C[n+]1cc[nH]c1SCC(=O)c1ccc(Cl)cc1.[Br-]	3.49%
O=C(NCc1ccc(F)cc1)Nc1cccc([N+](=O)[O-])c1	-6.9%

Compound	hERG current change (%, negative = inhibition) at 10uM
Cc1cc(C)n(-c2nnc(C)n2/N=C/c2cc(Br)ccc2OCc2ccccc2)n1	-2.83%
COc1ccc2cc(C(=O)N(C)Cc3ccccc3)[nH]c2c1	21%
Cc1cc(NC(=O)C(C)SCC(=O)OCC(=O)N(C)c2ccccc2)no1 (centres unmarked)	-7%
Cc1ccc([N+](=O)[O-])c(-c2n[nH]c(=S)n2-c2cccc(Cl)c2)c1	25.6%
CN(C)/C=C/c1onc(-c2c(Cl)cccc2Cl)c1C#N	9.38%
CCCC(=O)Nc1sc(C)c(-c2ccc(C(C)CC)cc2)c1C#N (centres unmarked)	3.7%
CCOC(=O)N1CCN(C(=O)CSc2nc3c(cnn3-c3ccccc3)c(=O)[nH]2)CC1	-26.6%
Cn1c(-c2ccc[nH]c2=O)nc2cc(Cl)ccc21	16.8%
NC(=O)CC(NC(=O)Cc1ccc(Br)cc1)c1ccc(NC2CCCC2)c([N+](=O)[O-])c1 (centres unmarked)	3.17%
O=C(COC(=O)C1CCN(c2ccc(C(F)(F)F)cn2)CC1)NCc1ccccc1	-3.43%
CCC(=O)N1CC(=O)Nc2ccc(F)cc2C1c1ccccc1 (centres unmarked)	8.81%
COCCNS(=O)(=O)c1ccc(F)c(OC)c1	8.65%
Cc1c(C(=O)OC(C)C)nnn1-c1nonc1N	12.2%
COC(c1ccccc1)c1nnc(CCC(=O)N2CCN(C3CCCC3)CC2)o1 (centres unmarked)	-36.6%
Cc1nn(-c2ccc(F)cc2)c(Cl)c1/C=C/C(=O)OCC(=O)Nc1c(F)c(F)c(F)c(F)c1F	11.3%
Cc1ccc(NC(=O)C2CC(=O)N(C(C)C)C2)cc1C (centres unmarked)	13.1%
Cc1cccc(N2CCN(S(=O)(=O)c3ccc4c(c3)CC(=O)N4C)CC2)c1C	14.1%
O=C(c1cccc(S(=O)(=O)N2CCN(c3ccccc3)CC2)c1)N1CCCCCCC1	-33.4%
COc1ccc(-n2c(SCC(=O)Nc3ccc4c(c3)OCO4)nc3ccccc3c2=O)cc1	-12.1%
COc1ccc(N2CCN(C(=O)CCc3c[nH]c4ccccc34)CC2)cc1	-10.2%
Cc1ccccc1-c1nnc(SCC(=O)NC2CCCC2)n1C	-3.57%
Clc1ccc2[nH]c3c(N4CCC5(CC4)OCCO5)ncnc3c2c1	-36.2%
